Data taken from PubChem BioAssay AID651813 (National Center for Advancing Translational Sciences (NCATS), 2012).
About 1,100 (52%) of roughly 2,100 compounds were called active. So high a share suggests a set chosen from earlier hits. The inconclusive results got no clear call from the source; some entries with a clear call stand among them for comparison. Calls follow the shape of the dose curve; as a rule, active = well fitted inhibition curve with a large enough effect; inconclusive = small, poorly fitted or top-dose-only effect; inactive = no such curve, though single readings can be large or run the other way. No potency is given beside an inconclusive call; the fits are too rough.

target: DNA dC->dU-editing enzyme APOBEC-3G (Homo sapiens) (UniProt Q9HC16); test: qHTS for inhibitors of Vif-A3G interactions: Cherry picks counterscreen; settings: HeLa A3G-eYFP + Vif (tagged APOBEC3G with the HIV-1 protein that degrades it), eYFP fluorescence, 24 h;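 also: hits raise yellow fluorescence by blocking Vif-driven A3G-eYFP degradation; nearly all actives have a fitted effect of over 70% in size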;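 as to max response: max response given as percent of control signal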
Sequence of UniProt Q9HC16 (Q9HC16 whole entry, looked up): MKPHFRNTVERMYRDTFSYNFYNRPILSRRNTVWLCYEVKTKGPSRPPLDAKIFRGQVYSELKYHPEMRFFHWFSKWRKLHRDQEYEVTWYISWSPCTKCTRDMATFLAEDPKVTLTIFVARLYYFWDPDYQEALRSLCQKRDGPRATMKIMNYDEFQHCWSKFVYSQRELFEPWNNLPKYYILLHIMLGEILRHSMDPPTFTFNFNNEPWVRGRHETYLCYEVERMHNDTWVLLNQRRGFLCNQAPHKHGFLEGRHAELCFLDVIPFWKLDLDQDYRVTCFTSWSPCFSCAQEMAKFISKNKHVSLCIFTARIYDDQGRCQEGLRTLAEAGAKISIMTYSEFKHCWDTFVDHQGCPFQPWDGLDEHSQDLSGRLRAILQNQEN
Source text: The recent discovery and characterization of host restriction factors, which provide a potent defense to invading retroviruses, has provided new targets for antiviral drug development. APOBEC3G (A3G) and APOBEC3F (A3F) are potent cytidine deaminases that block HIV-1 replication; HIV-1 expresses the Vif protein, which counteracts A3G and A3F by binding to them and inducing their proteasomal degradation. The Vif-A3G and Vif-A3F interactions provide two potential targets for development of small molecules which can interfere with the ability of Vif to degrade A3G or A3F. […] To identify inhibitors that can interfere with Vif mediated degradation of A3G and A3F, we have developed Hela cell lines that stably express A3G or A3F tagged with eYFP at the C-terminal end (A3G-eYFP or A3F-eYFP, respectively) and Vif. In the absence of an inhibitor, Vif induces degradation of A3G-eYFP and A3F-eYFP, and the cells are not fluorescent. In the presence of an inhibitor, it is expected that Vif will be unable to degrade A3G-eYFP and/or A3F-eYFP, resulting in an increase in yellow fluorescence. In this counterscreen assay, Vif A3G was screened against the cherry picks ordered from the MLSMR. NIH Chemical Genomics Center [NCGC] NIH Molecular Libraries Probe Centers Network [MLPCN] MLPCN Grant: MH093245 Assay Submitter (PI): Vinay Pathak, National Cancer Institute
A3G-Vif cells were harvested from T225 flask and resuspended in phenol free OPTI-MEM medium with 5% FBS. Then 5 uL of 140,000 cells/mL resuspended cells was dispensed into each well of low base Aurora COC 1,536-well plates (black walled, clear bottom) using a Multidrop Combi dispenser. After overnight culture at 37 deg C with 5% CO2, a total of 23 nL of compounds at 5 selected concentrations from the NPC or positive control (2 mM stock of MG132) in DMSO was transferred to each well of the assay plate using a pintool (Kalypsys, San Diego, CA), and the plates were further incubated at 37 deg C with 5% CO2 for 24 hours. After that, the plates were measured on Acumen Explorer (TTP Lab Tech). The fluorescence was detected by 488 nm/Ex and […].
Potency is read from the fitted curve at half-maximal effect; tags tell the direction and shape of the fitted curve.

**Q.** How did the Potency turn out when `CCOc1ncccc1C(=O)NCc1ccc(OC)cc1` was run?
**A.** inconclusive [inhibitor, partial curve]

**Q.** `Cc1ccccc1NC(=O)CSc1nc2cc3c(cc2cc1C)CCC3` was tested. Which Potency did it give?
**A.** inconclusive [inhibitor, full curve]

**Q.** `COc1ccccc1OCC(=O)NNC(=O)Nc1ccc(Cl)cc1` was tested. Which Potency did it give?
**A.** inconclusive [inhibitor, single point]

**Q.** How did the Potency turn out when `Cc1ccc(N/C(N)=N/c2nc(CSc3nnc(C)s3)cc(=O)[nH]2)c(C)c1` was run?
**A.** active: 2.8 µM

**Q.** How did the Potency turn out when `Cc1ccccc1OCC(=O)N/N=C/c1ccc(N(C)C)cc1` was run?
**A.** inconclusive [inhibitor, partial curve]

**Q.** With `Cc1ccc(CSc2nc(-c3ccc(C(C)(C)C)cc3)nc3cc(=O)[nH]n23)cc1` as the molecule, how does the max response read?
**A.** inactive: 28.6%

**Q.** Which max response does the source give for `Cc1ccc(NC(=S)Nc2ccccn2)c(C)c1` here?
**A.** inactive: -5.64%

**Q.** How did the Potency turn out when `COc1cc(/C=N/NC(=O)c2[nH]nc3c2CCc2ccccc2-3)ccc1O` was run?
**A.** inconclusive [inhibitor, single point]

**Q.** With `COc1ccc(/C=C2/CSC/C(=C/c3ccc(OC)c(OC)c3)C2=O)cc1OC` as the molecule, how does the Potency read?
**A.** active: 5.59 µM

**Q.** How did the Potency turn out when `Cc1ccc2c(c1)Oc1ccc(NC(=O)CCl)cc1C(=O)N2` was run?
**A.** inconclusive [inhibitor, single point]

**Q.** How did the Potency turn out when `CCC(C)n1c(NC(=O)c2ccccc2)c(C#N)c2nc3ccccc3nc21` (configuration not stated) was run?
**A.** active: 18.4 µM

**Q.** How did the Potency turn out when `Cc1ccc2nc(-c3ccccn3)c(NC3CCCC3)n2c1` was run?
**A.** inconclusive [inhibitor, single point]

**Q.** `O=C(NC(=S)Nc1ccccc1N1CCCCC1)c1ccccc1` was tested. Which max response did it give?
**A.** inactive: 8.17%

**Q.** For `CCOc1ccccc1N1CC(c2nc3ccccc3n2Cc2c(C)cc(C)cc2C)CC1=O` (configuration not stated), which max response is on record?
**A.** inactive: -2.71%

**Q.** How did the Potency turn out when `COc1ccc(/C=N/n2cc(-c3ccccc3)nc2N)cc1` was run?
**A.** inconclusive [inhibitor, partial curve]

**Q.** Which Potency does the source give for `CN(C)c1ccccc1-c1cc(NC=O)c2ncc(-c3cccc(C(F)(F)F)c3)n2c1` here?
**A.** active: 12.5 µM

**Q.** For `Cc1ccc(NC(=O)CSc2n[nH]c(-c3ccccn3)n2)cc1`, which max response is on record?
**A.** inactive: -4.16%

**Q.** `COc1ccc(NC(=O)c2c(C)noc2-c2snnc2C)cc1` was tested. Which Potency did it give?
**A.** inconclusive [inhibitor, partial curve, poor fit]

**Q.** How did the Potency turn out when `CCOC(=O)C1=C(C)N=c2sc(=Cc3cc(Cl)c(OCC(=O)O)c(Cl)c3)c(=O)n2C1c1cccc(OC)c1` (configuration not stated) was run?
**A.** inconclusive [inhibitor, partial curve, poor fit]

**Q.** Which max response does the source give for `N#Cc1ccc(-c2ccco2)nc1SCc1ccccc1` here?
**A.** inactive: -26%

**Q.** `C(=C/c1nccc2c1[nH]c1ccccc12)/c1ccc2c(c1)OCO2` was tested. Which Potency did it give?
**A.** inconclusive [inhibitor, partial curve, poor fit]

**Q.** Which max response does the source give for `CC1C/C(=N\NC(N)=S)c2cc(Cl)ccc2S1` (configuration not stated) here?
**A.** inactive: -16.7%

**Q.** `COc1ccccc1CNc1nc2ccc(C)cc2n2nnnc12` was tested. Which Potency did it give?
**A.** inconclusive [inhibitor, single point]

**Q.** `CCn1c(CNC(=O)c2cc(OC)c(OC)c(OC)c2)cc2cc(C)ccc21` was tested. Which max response did it give?
**A.** inactive: -10.2%

**Q.** `COc1ccc(O)c(C(=O)c2coc(=N)c(C(=O)Nc3ccc(SC(F)F)cc3)c2)c1` was tested. Which Potency did it give?
**A.** inconclusive [inhibitor, single point]

**Q.** For `COc1cccc(Cn2c(-c3nonc3NC(C)=O)nc3ccccc32)c1`, which Potency is on record?
**A.** active: 11.6 µM

**Q.** `COc1ccccc1C(=O)NC(=S)Nc1ccc(NC(=O)c2ccco2)cc1` was tested. Which Potency did it give?
**A.** inconclusive [inhibitor, single point]

**Q.** How did the Potency turn out when `CCc1sc(-c2cc3ccc(O)cc3oc2=O)nc1-c1ccc(C)cc1` was run?
**A.** active: 2.59 µM

**Q.** How did the max response turn out when `Cn1c2ccccc2c2ccc3c(c21)C(=O)C=CC3=O` was run?
**A.** inactive: 10.2%

**Q.** How did the max response turn out when `CCCCCCc1cc2cc(-c3nnc(-c4ccccc4O)o3)c(=O)oc2cc1O` was run?
**A.** inactive: 54.5%

**Q.** How did the max response turn out when `COc1cc(/C=C2\C(=N)N3N=C(S(C)(=O)=O)SC3=NC2=O)ccc1OC(=O)c1ccco1` was run?
**A.** inactive: 53.1%

**Q.** How did the Potency turn out when `Cc1nn(-c2ccc(F)cc2)c(Cl)c1/C=C1\C(=O)Nc2ccccc21` was run?
**A.** inconclusive [inhibitor, partial curve]

**Q.** With `NC(=S)N/N=C/c1cccc(O)c1O` as the molecule, how does the max response read?
**A.** inactive: 3.32%

**Q.** Which Potency does the source give for `O=C(C[n+]1cccc2cc(Cl)ccc21)c1ccc(I)cc1` here?
**A.** active: 18.4 µM

**Q.** `CC1=CC(C)(C)Nc2ccc(OC(=O)c3ccco3)cc21` was tested. Which Potency did it give?
**A.** inconclusive [inhibitor, single point]

**Q.** Which max response does the source give for `S=c1[nH]cnc2sc(-c3ccccc3)cc12` here?
**A.** inactive: 1.89%

**Q.** How did the Potency turn out when `C=CCOc1ccc2nc(NC(=O)OC)[nH]c2c1` was run?
**A.** active: 2.23 µM

**Q.** Which Potency does the source give for `CCOC(=O)C(=Cc1ccc(-n2cncn2)cc1)C(=O)OCC` here?
**A.** inconclusive [inhibitor, single point]

**Q.** `O=C1c2cccc3c([N+](=O)[O-])c(O)cc(c23)C(=O)N1Nc1ccccc1` was tested. Which Potency did it give?
**A.** inconclusive [inhibitor, single point]

**Q.** For `CCc1nc(Nc2ccc3nccnc3c2)c2oc3ccccc3c2n1`, which Potency is on record?
**A.** inconclusive [inhibitor, single point]

**Q.** How did the Potency turn out when `COc1cc(Br)c(/C=C(\C#N)c2nc3ccccc3[nH]2)cc1OC` was run?
**A.** inconclusive [inhibitor, single point]

**Q.** Which Potency does the source give for `COc1ccc(/C=N\NC(=O)c2ccccc2F)cc1COc1ccc(F)cc1F` here?
**A.** inconclusive [inhibitor, full curve]

**Q.** For `CCOC(=O)c1c(C)oc2ccc(N(C(=O)c3ccncc3)S(=O)(=O)c3ccc(Br)cc3)cc12`, which Potency is on record?
**A.** inconclusive [inhibitor, single point]

**Q.** For `CCC(=O)Nc1nonc1-c1nc2ccccc2n1Cc1ccccc1`, which Potency is on record?
**A.** active: 14 µM

**Q.** Which Potency does the source give for `Cc1nc(CSc2nsc(/C=C/N(C)C)c2C#N)cs1` here?
**A.** inconclusive [inhibitor, single point]

**Q.** How did the Potency turn out when `CN(C)c1ccc(/C=C(/C(=O)c2ccc(Cl)cc2Cl)n2cncn2)cc1` was run?
**A.** inconclusive [inhibitor, single point]

**Q.** `COc1ccccc1NC1=NC(c2ccc(Cl)cc2)N=C(N)N1` (configuration not stated) was tested. Which Potency did it give?
**A.** inconclusive [inhibitor, single point]
